# Results reported in PubChem BioAssay AID686979 (National Center for Advancing Translational Sciences (NCATS), 2013).
# Among all 420,000 compounds or so, about 50,000 (12%) were called active. The inconclusive results got no clear call from the source; some entries with a clear call stand among them for comparison. Calls come from the whole dose curve; as a rule, active = well fitted inhibition curve with a large enough effect; inconclusive = small, poorly fitted or top-dose-only effect; inactive = flat fitted curve, though single readings scatter. Potencies of inconclusive entries are left out as doubtful fits.
# Assay: qHTS for Inhibitors of human tyrosyl-DNA phosphodiesterase 1 (TDP1): qHTS in cells in presence of CPT; note: nearly all actives have a fitted effect of over 55% in size
# Conditions: chicken DT40 Tdp1-/-;hTDP1 cells + 20 nM CPT, ATP luminescence, 48 h; activity change, negative = growth inhibition: at 46.2 µM (top of the series) unless noted
# Outline: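 Cell growth measured by CellTiter-Glo luminescence after a minimum 48 h, 37 C compound exposure with 20 nM CPT in Tdp1-knockout DT40 cells stably expressing hTDP1, seeded 400/well; qHTS titration format.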
# % is set by controls: 0 for no effect and ±100 for the full control effect; potency is the fitted concentration of half-maximal effect; tags give direction and shape of the fitted curve.
SMILES,Potency,"activity change, negative = growth inhibition"
CC1=C[C@H]2Cc3cc(C)cc(C)c3S(=O)(=O)[C@@H]2C=C1,"inconclusive [inhibitor, partial curve]",
O=C(Nc1cc2c3c(c1)CC(=O)N3CCC2)c1c(F)cccc1F,,inactive: -1.04%
CC1CCN(CCOCCOc2ccc(Br)cc2Cl)CC1,active: 18.4 µM,
COc1ccc(C(=O)NCCS(=O)(=O)N2CCCC2)cc1,,inactive: 12.5%
COc1ccccc1C(=O)Nc1ccc(C(=O)OCc2cc(=O)n3ccsc3n2)cc1,,inactive: -11.1%
Cc1ccsc1/C=N/NC(=O)c1nnn(-c2nonc2N)c1CSc1ccccc1,,inactive: -24.9%
COc1cc(OC)cc(C(=O)N/N=C\c2ccoc2)c1,,inactive: -9.34%
O=C(O)c1ccc(NC(=O)c2ccccc2NC(=O)c2cccc(Br)c2)cc1,"inconclusive [inhibitor, single point]",
COc1ccc(CN(C(=O)Cc2c[nH]c3ccccc23)C(C(=O)NC2CCCCC2)c2ccc(C)o2)cc1 (stereo not drawn),"inconclusive [inhibitor, single point]",
S=c1[nH]nc(-c2cc(-c3ccsc3)n[nH]2)n1-c1ccccc1,"inconclusive [inhibitor, single point]",
CCN(CC(=O)Nc1cc(Cl)ccc1C)C(=O)C1CC1,,inactive: 3.02%
Cc1cc(C(=O)NCC2Cc3cccc(-c4cncnc4)c3O2)c(C)o1 (stereo not drawn),,inactive: 6.48% [at 9.04 µM]
O=C(Nc1ccc2nccnc2c1)N1CCCCCC1,"inconclusive [inhibitor, single point]",
O=C(NCc1ccncc1)c1ccc(N2CCCC2)c([N+](=O)[O-])c1,"inconclusive [inhibitor, single point]",
CCCN(CC(=O)Nc1ccccc1C)C(=O)Cc1cccs1,,inactive: -12.8%
CC(C)NC(=S)Nc1cccc2cnccc12,,inactive: 0.573%
CCOC(=O)c1sc(NC(=O)c2cc3nc(-c4ccc(Br)cc4)cc(C(F)(F)F)n3n2)c(C(=O)OCC)c1C,"inconclusive [inhibitor, single point]",
COc1ccc(CN2CCC(C)(Oc3ccc4c(c3)OCO4)C2)c2ccccc12 (stereo not drawn),"inconclusive [inhibitor, single point]",
CC1C(=O)N(Cc2cn(CCC3OCCO3)nn2)CCS(=O)(=O)N1Cc1ccc(-c2ccc(Cl)c(Cl)c2)cc1 (stereo not drawn),active: 14.6 µM,
Cc1ccc(C(C(=O)Nc2ccc3c(c2)OCO3)N(C)C(=O)/C=C\c2ccc3c(c2)OCO3)cc1 (stereo not drawn),"inconclusive [inhibitor, partial curve, poor fit]",
Cc1nc2cc(C(=O)O)ccc2n1-c1ccc(C(C)C)cc1,,inactive: 2.16%
COCCn1c(=NC(=O)CCS(=O)(=O)c2ccccc2)sc2ccccc21,active: 20.6 µM,
CCCc1cc(=O)[nH]c2nnc(SCC(=O)Nc3nnc(CC)s3)n12,,inactive: -8.48%
CN(C(=O)c1cccc(NC(=O)Cc2ccc(NC(=O)C3CCCN(C(=O)CCc4ccccc4)C3)cc2)c1)C1CC1 (stereo not drawn),"inconclusive [inhibitor, single point]",
CCOc1cc(NC(=O)C2CC2)c(OCC)cc1NC(=O)c1ccccn1,active: 18.4 µM,

SMILES,Potency,"activity change, negative = growth inhibition"
COc1ccccc1NS(=O)(=O)c1cc(NC(=O)CN2C(=O)NC3(CCCCC3)C2=O)ccc1C,"inconclusive [inhibitor, single point]",
CC1(C(=O)NS(=O)(=O)c2cccc(C#N)c2)CCN1C(=O)Cc1ccc(-c2ccccc2)cc1 (stereo not drawn),,inactive: -14.8%
c1ccc2c(-n3ccnc3)nc(-c3ccoc3)nc2c1,"inconclusive [inhibitor, single point]",
O=C1c2ccccc2C(=O)c2c(/C=C/N3CCCCC3)ccnc21,active: 6.51 µM,
Cc1cccc(N2CCN(C(=O)Cn3c(=O)c4cccn4c4ccc(F)cc43)CC2)c1C,active: 20.6 µM,
Cn1c(-n2c(-c3ccco3)nc3ccccc3c2=O)nc2ccccc21,active: 3.66 µM,
COCC(=O)Nc1cc(C(=O)N[C@H]2CCCCNC2=O)c2c(c1)nc(-c1ccncc1)n2C,,inactive: 13.4% [at 9.04 µM]
O=C(OCC(=O)N1CCN(C(=O)c2ccco2)CC1)c1cc(-c2ccco2)nc2ccccc12,"inconclusive [inhibitor, single point]",
CC(C)CC(=O)Nc1ccc(Cl)c(-c2nc3ccccc3[nH]2)c1,"inconclusive [inhibitor, single point]",
COc1ccc(OC)c(-n2c(-c3cccc(C)c3)n[nH]c2=S)c1,,inactive: 6.48%
Cc1ccc(OCC(=O)Nc2sc3c(c2C#N)CC(C)(C)NC3(C)C)cc1,"inconclusive [inhibitor, single point]",
O=C(Cc1cccs1)N(Cc1cccs1)C1(C(=O)NC2CCCC2)CCCCC1,active: 8.2 µM,
Cc1cnc(NC(=O)CC2OC(=O)c3ccccc32)s1 (stereo not drawn),,inactive: -27.2%
O=c1cc(-c2ccccc2)oc2cc(O)ccc12,"inconclusive [inhibitor, single point]",
COc1ccc(Br)cc1CSC(=N)N,"inconclusive [inhibitor, single point]",
CCOC(=O)c1c(C(C)(C)C)oc2ccc(O)cc12,active: 20.6 µM,
CC(C)CN(CC(C)C)S(=O)(=O)c1cc([N+](=O)[O-])ccc1N1CCCCCC1,"inconclusive [inhibitor, single point]",
Cc1noc(-c2ccc(C(F)(F)F)cc2)c1NC(=O)Nc1ccc(Cl)cc1,active: 4.61 µM,
CCCC(=O)Nc1nc2ccc(NC(=O)c3cccnc3)cc2s1,active: 9.2 µM,
CCCCCCCCNC(=O)c1cccnc1SCC(=O)Nc1ccccc1OC,"inconclusive [inhibitor, single point]",
O=C(COC(=O)c1cc(S(=O)(=O)N2CCCC2)ccc1O)NCCc1ccccc1,,inactive: 4.37%
COc1ccc(NC(=O)N(C)C[C@H]2Oc3ccc(NC(=O)CCC(F)(F)F)cc3C(=O)N([C@H](C)CO)C[C@@H]2C)cc1,,inactive: 10.6%
COc1ccccc1-c1cc(C(=O)N/N=C\c2cnn(C)c2C)c2ccccc2n1,"inconclusive [inhibitor, partial curve, poor fit]",
O=C(Nc1ccc(F)cc1F)c1cc(Cl)sc1Cl,,inactive: -2.68%
N#Cc1ccc(NS(=O)(=O)c2ccc(-c3cnc(C4CC4)o3)cc2)cc1,active: 18.4 µM,

SMILES,Potency,"activity change, negative = growth inhibition"
COc1cc(CN2CCN(C(=O)c3ccc(-c4ccccc4)cc3)CC2)cc(OC)c1OC,active: 20.6 µM,
COc1ccc(-c2cc3c(nn2)-c2ccccc2C3=O)cc1,active: 25.9 µM,
CSc1ccc(C(=O)C2CCCN(C(=O)c3ccc4c(c3)OCO4)C2)cc1 (stereo not drawn),"inconclusive [inhibitor, partial curve]",
Fc1ccc(NC(=S)Nc2cccc(Cl)c2)cc1,"inconclusive [inhibitor, single point]",
CCOc1ccc(CCNC(=O)C2CCCN(S(=O)(=O)c3c(C)n[nH]c3C)C2)cc1OCC (stereo not drawn),"inconclusive [inhibitor, partial curve]",
COc1ccc(OC)c(CNC(=O)CN2C(=O)CCn3nc(-c4cn(C)c5ccccc45)cc32)c1,"inconclusive [inhibitor, single point]",
CCN(CC)C(=O)[C@H]1C[C@H](CC(=O)NCc2ccc(OC)c(OC)c2)C(=O)N2CCc3c([nH]c4ccc(Cl)cc34)[C@]12C,"inconclusive [inhibitor, single point]",
COc1ccc(/C=N\NC(=O)c2sccc2C)cc1Cn1nc(C)cc1C,active: 7.31 µM,
COc1ccc(-c2nc(SCC(=O)Nc3nccs3)c(-c3ccc(Cl)cc3)[nH]2)cc1,"inconclusive [inhibitor, single point]",
CCCOc1ccccc1/C=C1/C(=O)ON=C1C,"inconclusive [inhibitor, single point]",
COc1ccc(N=C2NN=C(c3ccc4c(c3)OCCO4)CS2)cc1,active: 20.6 µM,
CCOc1ccc(-c2nc(CCl)cs2)cc1,active: 10.3 µM,
COc1ccc(NC(=O)CN2C(=O)c3ccccc3S2(=O)=O)cc1S(=O)(=O)N1CCOCC1,,inactive: -0.836%
NC(=O)CSc1nc2c(sc(=S)n2-c2ccccc2)c(=O)[nH]1,,inactive: -0.584%
O=C(c1ccco1)N1CCC[C@@]2(CCN(c3ccccc3)C2)C1,"inconclusive [inhibitor, partial curve, poor fit]",
CCOC(=O)c1ccccc1NC(=O)N(Cc1ccco1)C1CCN(C(C)=O)CC1,"inconclusive [inhibitor, single point]",
CNC(=O)c1ccc(Nc2nnc(-c3ccc(C)c(S(=O)(=O)N4CCOCC4)c3)c3ccccc23)cc1,active: 20.6 µM,
CCOC(=O)C(c1ccccc1)C(Nc1ccccc1)c1ccccn1 (stereo not drawn),"inconclusive [inhibitor, single point]",
COc1cc2nc(NCC(C)c3ccccc3)n3nc(-c4ccccc4)nc3c2cc1OC (stereo not drawn),active: 16.4 µM,
Cc1ccc(C)n1-c1nnc(N2CCCC(C(=O)NCc3ccccc3)C2)s1 (stereo not drawn),"inconclusive [inhibitor, single point]",
CCOC(=O)COn1c(=O)c(-c2ccc(C)cc2)[n+]([O-])c2ccccc21,,inactive: -1.83%
CC1(C#N)c2ccccc2C(Br)=CN1C(=O)c1ccccc1 (stereo not drawn),"inconclusive [inhibitor, partial curve]",
CCCCn1c2nc3ccccc3nc2c2c(=O)n(CCC)cnc21,"inconclusive [inhibitor, partial curve]",
